In PubChem BioAssay AID686979 (National Center for Advancing Translational Sciences (NCATS), 2013):
Values joined by “and” are separate entries in the source; they are usually repeats but may differ in a detail not shown here. Identical values can stand only once. In all, about 420,000 compounds went through this assay and about 50,000 (12%) were called active. The inconclusive results got no clear call from the source; some entries with a clear call stand among them for comparison. Calls follow the shape of the dose curve; as a rule, active = well fitted inhibition curve with a large enough effect; inconclusive = small, poorly fitted or top-dose-only effect; inactive = flat fitted curve, though single readings scatter. A potency beside an inconclusive call is a rough fit, not a confirmed value.
Potency is read from the fitted curve at half-maximal effect; tags tell the direction and shape of the fitted curve.

Assay: qHTS for Inhibitors of human tyrosyl-DNA phosphodiesterase 1 (TDP1): qHTS in cells in presence of CPT; also: nearly all actives have a fitted effect of over 55% in size
Settings: chicken DT40 Tdp1-/-;hTDP1 cells + 20 nM CPT, ATP luminescence, 48 h; series mostly up to 46.2 µM
Summary of the method: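 Chicken DT40 Tdp1-/- cells complemented with human TDP1, 400 cells/well, exposed to compounds plus 20 nM camptothecin for at least 48 h at 37 C; viability read as ATP content by CellTiter-Glo luminescence.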
With CC(=O)c1ccc(Nc2nc(CN)cs2)cc1 the Potency was inconclusive: 29.1 µM [inhibitor, single point].
With COC(=O)c1cc(S(=O)(=O)NCc2ccc(S(N)(=O)=O)cc2)oc1C the Potency was “inactive”.
With CCOc1ccc2[nH]c3nc(SCC(=O)NC4CC4)nnc3c2c1 the Potency was inconclusive: 16.4 µM [inhibitor, single point].
In the case of CC(C)C[C@H](NC(=O)c1cc2cc(Cl)ccc2n1C)C(=O)N1CCC(C(=O)O)CC1, the Potency is reported as “inactive”.
For COc1cc(-c2ccc(N=Nc3ccc4c(S(=O)(=O)O)cc(S(=O)(=O)O)c(N)c4c3O)c(OC)c2)ccc1N=Nc1ccc2c(S(=O)(=O)O)cc(S(=O)(=O)O)c(N)c2c1O, the Potency was inconclusive: 10.6 µM [inhibitor, full curve].
In the case of Cc1nn(C2CCS(=O)(=O)C2)c(Cl)c1/C=C/C(=O)OCC(=O)Nc1ccccc1[N+](=O)[O-] (stereo not given), the Potency is reported as inconclusive: 23.1 µM [inhibitor, single point].
With CC(=O)Nc1cccc(NC(=O)/C=C/c2ccc(S(=O)(=O)N3CCOCC3)cc2)c1 the Potency was inconclusive: 0.0082 µM [inhibitor, full curve, poor fit].
For Cc1ccc(NC(=O)C2CCCN(S(=O)(=O)c3c(C)noc3C)C2)cc1F (stereo not given), the Potency was inconclusive: 14.6 µM [inhibitor, partial curve, poor fit].
In the case of CCN(CC)CCOC(=O)C(c1ccccc1)C1CCCCC1 (stereo not given), the Potency is reported as inconclusive: 29.1 µM [inhibitor, single point] and inconclusive: 23.1 µM [inhibitor, single point].
In the case of COc1ccc(NC(=O)c2cc(C3CC3)nc3c2cnn3C(C)C)cc1OC, the Potency is reported as inconclusive: 29.1 µM [inhibitor, single point].
For COC(=O)C1=CN(c2ccc(OC)cc2)C=C(C(=O)OC)C1c1cc(OC)c(OC)cc1OC, the Potency was inconclusive: 23.1 µM [inhibitor, single point].
With COc1ccc(NC(=O)Nc2ccc3c(c2)C(=O)N([C@H](C)CO)C[C@H](C)[C@@H](CN(C)C(=O)Nc2ccc4c(c2)OCO4)O3)cc1 the Potency was inconclusive: 29.1 µM [inhibitor, single point].
In the case of CC(=O)Nc1ccc(/C(C)=N/Nc2nc(N3CCOCC3)nc(N3CCOCC3)n2)cc1, the Potency is reported as inconclusive: 18.4 µM [inhibitor, single point].
With O=C(N/N=C/c1cc([N+](=O)[O-])ccc1O)c1ccncc1 the Potency was inconclusive: 25.9 µM [inhibitor, single point].
For COc1ccccc1/C=C/C=N/N1CCN(c2ccccn2)CC1, the Potency was inconclusive: 29.1 µM [inhibitor, single point].
